This list was built around the results that the source calls inconclusive (neither active nor inactive); the mix of calls is not that of the screen. For part of these data: Where the call is inconclusive, the potency comes from a doubtful curve fit. More than one record can exist for a structure, and the calls need not agree. Calls of active or inactive are those of the source. Unless noted, calls follow the shape of the dose curve; as a rule, active = well fitted curve in the direction sought with a large enough effect in the repeat runs; inconclusive = weak or mixed curves; inactive = no such curve, though single readings can be large; an effect the other way counts as inactive or inconclusive.
Experiments:
[1] = biological target: Glucocorticoid receptor (Homo sapiens) (UniProt P04150); assay: qHTS assay to identify small molecule agonists of the glucocorticoid receptor (GR) signaling pathway (AID 720691; active = well fitted activation curve with a large enough effect in the signal ratio in the repeat runs, not every such curve was filed as active; inconclusive = weak or mixed curves, or effect the other way; inactive = no such curve, though single readings can be large or run the other way; the % refers to the signal ratio; also: % is scaled to controls: 0 for no effect and ±100 for the full control effect); conditions: GR-bla HeLa, beta-lactamase reporter ratio, 18 h; activation: at 62.4 µM (top of the series) unless noted
How it was run: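 GR-bla HeLa cells carrying a GRE-driven beta-lactamase reporter, exposed to compounds for 18 h at 37 C. Reporter activation read as fluorescence after 2 h with LiveBLAzer B/G FRET substrate at room temperature.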

[2] = Human pregnane X receptor (PXR) small molecule agonists, qHTS cell viability counter screen (AID 1346977); also: nearly all actives have a fitted effect of over 50% in size; also: potency is read from the fitted curve at half-maximal effect; as to activity change, negative = cytotoxicity: % is scaled to controls: 0 for no effect and ±100 for the full control effect
How it was run: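 In each well, the PXR reporter HepG2 line was checked for viability: CellTiter-Fluor reagent added 23hr post-dosing, fluorescence read after 1hr incubation at 37C.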

[3] = biological target: Aryl hydrocarbon receptor (Homo sapiens) (UniProt P35869); assay: qHTS assay to identify small molecule that activate the aryl hydrocarbon receptor (AhR) signaling pathway (AID 743085); also: nearly all actives have a fitted effect of over 15% in size; also: potency is read from the fitted curve at half-maximal effect
How it was run: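 Stably transfected human liver carcinoma cells (HG2L7.5c1; 20 DRE-firefly luciferase) were incubated 5 h, dosed, and kept 24 h at 37C. Agonism was scored from increased luciferase luminescence.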

[4] = qHTS assay to identify small molecule antagonists of the androgen receptor (AR) signaling pathway using the MDA cell line - cell viability counter screen (AID 743041; also: potency is read from the fitted curve at half-maximal effect; nearly all actives have a fitted effect of over 45% in size); conditions: MDA-kb2 viability, CellTiter-Fluor, 16 h, cells co-treated with R1881 androgen agonist; viability change, negative = cytotoxic: at 70.3 µM (top of the series)
How it was run: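 MDA-kb2 AR-luc human breast carcinoma cells (MMTV-luciferase, AR/GR responsive) were treated with compounds plus R1881 agonist for 16 h at 37 °C. Viability was read as CellTiter-Fluor fluorescence in the same wells as the reporter assay.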

[5] = qHTS assay to identify small molecule antagonists of the peroxisome proliferator-activated receptor gamma (PPARg) signaling pathway - cell viability counter screen (AID 743194); conditions: PPARg-bla HEK293H viability, CellTiter-Glo luminescence, 17 h, co-treated with 50 nM rosiglitazone; activity change, negative = cytotoxicity: at 62.6 µM (top of the series) unless noted; also: potency is read from the fitted curve at half-maximal effect; nearly all actives have a fitted effect of over 55% in size
How it was run: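 PPARg-UAS-bla HEK293H cells were plated, rested 5 h at 37 C, then treated with compounds plus rosiglitazone (50 nM final) for 17 h at 37 C; viability was then read by CellTiter-Glo luminescence after 30 min at room temperature.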

[6] = qHTS assay to identify small molecule agonists of the TGF-beta/Smad signaling pathway (AID 1346859; active = well fitted activation curve with a large enough effect in the signal ratio in the repeat runs, not every such curve was filed as active; inconclusive = weak or mixed curves; the % refers to the signal ratio; also: potency is read from the fitted curve at half-maximal effect)
How it was run: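 Screening used HEK 293T SBE-bla cells at 4,000/well. Test agents: 5 hr, 37 C. Detection: FRET substrate, 2 hr RT, then excitation 405 nm with emissions at 460 and 530 nm.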

[7] = biological target: Peroxisome proliferator-activated receptor delta (Homo sapiens) (UniProt Q03181); assay: qHTS assay to identify small molecule agonists of the peroxisome proliferator-activated receptor delta (PPARd) signaling pathway (AID 743212; calls by dose curve; also: % is scaled to controls: 0 for no effect and ±100 for the full control effect); conditions: HEK293H PPARd-UAS-bla, beta-lactamase FRET ratio, 17 h; activation: at 62.6 µM (top of the series) unless noted
How it was run: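 GeneBLAzer PPARd UAS-bla HEK293H cells (beta-lactamase reporter under UAS control), plated and rested 5 h at 37 C, then exposed to compounds in DMSO at 37 C; LiveBLAzer B/G FRET substrate added, 2 h room temperature, fluorescence read.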

[8] = qHTS assay to identify small molecule antagonists of the glucocorticoid receptor (GR) signaling pathway - cell viability counter screen (AID 720693); conditions: GR-bla HeLa viability, CellTiter-Glo luminescence, 18 h, with 5 nM dexamethasone present; viability change, negative = cytotoxic: at 58.5 µM (top of the series); also: nearly all actives have a fitted effect of over 55% in size; also: potency is read from the fitted curve at half-maximal effect
[9] = qHTS assay to identify small molecule agonists of the sonic hedgehog signaling (Shh) pathway - cell viability counter screen (AID 1259366); also: nearly all actives have a fitted effect of over 50% in size; also: potency is read from the fitted curve at half-maximal effect
How it was run: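 In quantitative high-throughput format, 3T3 Gli1-Luc cells were exposed to compounds for 24hr and multiplexed for viability using CellTiter-Fluor, incubated 1hr at 37C before the fluorescence read.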

[10] = biological target: Estrogen receptor (Homo sapiens) (UniProt P03372); assay: qHTS assay to identify small molecule agonists of the estrogen receptor alpha (ER-alpha) signaling pathway (AID 743075; calls by dose curve;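 also: HEK293 GripTite cells with ER-alpha and UAS-driven beta-lactamase reporter; potency is read from the fitted curve at half-maximal effect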); conditions: HEK293 ER-alpha-UAS-bla, beta-lactamase FRET ratio, 18 h; activation: at 70.1 µM (top of the series)
[11] = tested on: thyroid hormone receptor (rat, GH3 cells); assay: qHTS assay to identify small molecule agonists of the thyroid receptor (TR) signaling pathway (AID 743066; calls by dose curve; also: % is scaled to controls: 0 for no effect and ±100 for the full control effect); conditions: GH3.TRE-Luc cells, TR agonist luciferase, 24 h; activation: at 83.9 µM (top of the series) unless noted
[12] = qHTS assay for small molecules that induce genotoxicity in human embryonic kidney cells expressing luciferase-tagged ATAD5 - cell viability (AID 651634; calls by dose curve; also: % is scaled to controls: 0 for no effect and ±100 for the full control effect; nearly all actives have a fitted effect of over 25% in size)
How it was run: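 HEK293T cells carrying luciferase-tagged ATAD5, 2,000 cells/well, exposed to compound for 15.5 hr at 37C. Viability read as live-cell protease activity by CellTiter-Fluor fluorescence after 30 min at 37C.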

[13] = qHTS assay for small molecule agonists of the antioxidant response element (ARE) signaling pathway - cell viability counter screen (AID 743203; calls by dose curve; also: % is scaled to controls: 0 for no effect and ±100 for the full control effect; nearly all actives have a fitted effect of over 55% in size); conditions: ARE-bla HepG2 viability, CellTiter-Glo luminescence, 16 h; viability change, negative = cytotoxic: at 73.3 µM (top of the series)
How it was run: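 ARE-bla HepG2 cells were plated, rested 5 h at 37C/5% CO2, then exposed to compounds in DMSO for 16 h. Viability was read as CellTiter-Glo luminescence after 30 min at room temperature, in the same wells as the ARE screen.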

[14] = biological target: Estrogen receptor (Homo sapiens) (UniProt P03372); assay: qHTS assay to identify small molecule antagonists of the estrogen receptor alpha (ER-alpha) signaling pathway using the BG1 cell line in the presence of 0.1 nM 17-beta-estradiol (AID 1259244); also: % is scaled to controls: 0 for no effect and ±100 for the full control effect; nearly all actives have a fitted effect of over 50% in size
How it was run: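 VM7Luc4E2 cells (endogenous full-length ER-alpha, 4×ERE-luciferase), kept 5 days in phenol red-free, charcoal-stripped FBS medium; 4,000 cells/well. Compounds added with 0.1 nM (final) 17beta-estradiol, 22 hr at 37C; luminescence read with ONE-Glo after 30 min.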

[15] = qHTS assay to identify small molecule antagonists of the TGF-beta/Smad signaling pathway (AID 1346924; active = well fitted inhibition curve with a large enough effect in the signal ratio in the repeat runs, not every such curve was filed as active; inconclusive = weak or mixed curves; the % refers to the signal ratio); conditions: SBE-bla HEK293T, TGF-beta/Smad reporter, beta-lactamase ratio; activity, negative = inhibition: at 76.8 µM (top of the series) unless noted
How it was run: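 SBE-bla HEK 293T cells were plated overnight, then received compound in DMSO plus TGF-beta1 (added as a 0.25 ng/mL solution) and were incubated 5 h at 37 C. Beta-lactamase reporter activity was read after 2 h at room temperature with LiveBLAzer B/G FRET substrate (ex 405, em 460/530 nm).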

[16] = biological target: Nuclear receptor subfamily 1 group I member 2 (Homo sapiens) (UniProt O75469); assay: CYP3A4 induction through human pregnane X receptor (PXR) by small molecules, qHTS assay (AID 1346984); conditions: DPX-2 HepG2 PXR, CYP3A4-luciferin luminescence, 24 h; activation: at 46.1 µM (top of the series) unless noted; also: % is scaled to controls: 0 for no effect and ±100 for the full control effect; nearly all actives have a fitted effect of over 40% in size
How it was run: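 DPX-2 HepG2 cells carrying a PXR response element and CYP3A4-promoter luciferase construct, treated with compounds 24 hr at 37C. Then P450-Glo CYP3A4 Luciferin-IPA substrate (3uM final) for 3 hr at 37C, One-Glo added, luminescence read.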
Tags tell the direction and shape of the fitted curve or compound fluorescence and quenching.

UniProt P35869, sequence (P35869 whole entry, looked up): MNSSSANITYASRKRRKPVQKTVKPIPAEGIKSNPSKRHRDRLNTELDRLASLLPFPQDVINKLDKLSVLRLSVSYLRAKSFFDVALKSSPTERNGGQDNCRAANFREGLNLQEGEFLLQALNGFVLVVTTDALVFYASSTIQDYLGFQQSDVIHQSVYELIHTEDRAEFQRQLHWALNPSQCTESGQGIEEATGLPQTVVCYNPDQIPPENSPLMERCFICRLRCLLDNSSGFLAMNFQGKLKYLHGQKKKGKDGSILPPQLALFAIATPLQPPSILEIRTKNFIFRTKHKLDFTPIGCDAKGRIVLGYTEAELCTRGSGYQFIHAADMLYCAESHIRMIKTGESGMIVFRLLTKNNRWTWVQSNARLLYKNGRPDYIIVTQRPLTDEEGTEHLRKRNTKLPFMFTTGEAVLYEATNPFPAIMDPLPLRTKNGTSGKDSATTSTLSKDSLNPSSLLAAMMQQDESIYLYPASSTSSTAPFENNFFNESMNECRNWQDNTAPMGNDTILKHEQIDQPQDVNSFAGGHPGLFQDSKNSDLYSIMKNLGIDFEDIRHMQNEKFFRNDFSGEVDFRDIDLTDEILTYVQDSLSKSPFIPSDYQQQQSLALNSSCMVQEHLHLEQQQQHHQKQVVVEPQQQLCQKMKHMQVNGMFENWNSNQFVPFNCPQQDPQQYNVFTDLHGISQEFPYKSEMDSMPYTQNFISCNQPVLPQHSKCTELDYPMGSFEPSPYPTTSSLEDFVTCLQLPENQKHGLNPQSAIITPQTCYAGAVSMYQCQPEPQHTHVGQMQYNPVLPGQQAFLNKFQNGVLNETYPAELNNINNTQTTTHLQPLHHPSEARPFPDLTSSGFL
UniProt P03372, sequence (P03372 whole entry, looked up): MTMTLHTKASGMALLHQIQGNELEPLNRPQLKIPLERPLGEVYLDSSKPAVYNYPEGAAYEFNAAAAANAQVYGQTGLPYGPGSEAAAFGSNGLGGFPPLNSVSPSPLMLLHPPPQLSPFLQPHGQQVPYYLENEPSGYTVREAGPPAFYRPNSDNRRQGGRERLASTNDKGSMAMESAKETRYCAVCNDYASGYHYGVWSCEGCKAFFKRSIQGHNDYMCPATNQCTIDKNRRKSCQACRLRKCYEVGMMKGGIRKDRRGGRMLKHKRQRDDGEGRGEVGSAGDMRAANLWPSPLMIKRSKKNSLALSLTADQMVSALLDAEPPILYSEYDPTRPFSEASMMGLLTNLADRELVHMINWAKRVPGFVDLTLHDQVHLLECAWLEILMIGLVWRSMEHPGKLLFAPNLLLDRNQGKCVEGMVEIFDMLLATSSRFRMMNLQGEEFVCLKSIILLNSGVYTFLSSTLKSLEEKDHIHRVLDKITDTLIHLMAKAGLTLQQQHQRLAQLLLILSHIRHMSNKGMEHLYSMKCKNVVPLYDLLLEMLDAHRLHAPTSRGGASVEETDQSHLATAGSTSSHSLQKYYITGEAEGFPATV
UniProt Q03181, sequence (Q03181 whole entry, looked up): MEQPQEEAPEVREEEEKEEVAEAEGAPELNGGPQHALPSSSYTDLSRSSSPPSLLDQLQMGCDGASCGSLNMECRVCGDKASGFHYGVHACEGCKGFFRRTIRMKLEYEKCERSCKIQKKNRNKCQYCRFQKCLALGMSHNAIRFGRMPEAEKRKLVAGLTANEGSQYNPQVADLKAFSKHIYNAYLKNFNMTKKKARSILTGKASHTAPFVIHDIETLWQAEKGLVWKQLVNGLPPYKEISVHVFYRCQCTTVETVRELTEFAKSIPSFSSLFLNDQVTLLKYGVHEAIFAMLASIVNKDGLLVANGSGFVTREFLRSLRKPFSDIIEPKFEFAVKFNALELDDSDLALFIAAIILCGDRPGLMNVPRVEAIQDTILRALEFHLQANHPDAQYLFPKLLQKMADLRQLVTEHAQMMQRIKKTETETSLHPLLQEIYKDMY
UniProt P04150, sequence (P04150 whole entry, looked up): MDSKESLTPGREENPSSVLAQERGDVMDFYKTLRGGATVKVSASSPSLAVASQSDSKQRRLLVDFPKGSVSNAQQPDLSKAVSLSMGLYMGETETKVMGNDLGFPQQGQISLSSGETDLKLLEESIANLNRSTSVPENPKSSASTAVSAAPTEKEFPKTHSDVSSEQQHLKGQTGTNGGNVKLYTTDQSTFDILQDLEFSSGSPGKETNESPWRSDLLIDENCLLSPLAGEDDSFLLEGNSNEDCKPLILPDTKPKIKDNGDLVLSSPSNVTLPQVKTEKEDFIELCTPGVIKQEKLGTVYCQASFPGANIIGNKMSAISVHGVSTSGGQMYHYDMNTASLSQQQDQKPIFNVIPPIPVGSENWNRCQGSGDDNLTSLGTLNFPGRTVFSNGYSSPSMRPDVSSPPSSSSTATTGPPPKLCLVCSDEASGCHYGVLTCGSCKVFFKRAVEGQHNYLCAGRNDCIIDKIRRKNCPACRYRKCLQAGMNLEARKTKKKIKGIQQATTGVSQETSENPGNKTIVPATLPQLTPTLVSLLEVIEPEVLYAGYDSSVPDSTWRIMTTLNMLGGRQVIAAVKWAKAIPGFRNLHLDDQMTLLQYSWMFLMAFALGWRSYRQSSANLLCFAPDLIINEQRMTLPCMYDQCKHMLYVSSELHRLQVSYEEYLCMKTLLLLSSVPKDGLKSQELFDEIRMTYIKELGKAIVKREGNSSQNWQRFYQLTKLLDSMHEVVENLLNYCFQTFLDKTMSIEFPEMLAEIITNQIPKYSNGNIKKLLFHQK

CC(C)=CCCC(C)CC=O (stereo not given)
Potency [1]: inactive

C/C=C/c1ccc(OC)c(OC)c1
Potency [2]: inactive

c1ccc2nccnc2c1
activation [1]: inconclusive: -3.69% [phenotype inactive] [at 79.2 µM]

CO/N=C(/C(=O)N[C@@H]1C(=O)N2C(C(=O)[O-])=C(C[n+]3ccn4ncccc43)CS[C@H]12)c1nsc(N)n1
Potency [3]: inactive

CC(=O)NCc1c(I)c(NC(C)=O)c(I)c(C(=O)O)c1I
Potency [2]: inactive

Cc1[nH]c(=O)c(C#N)cc1-c1ccc2nccn2c1
Potency [4]: inconclusive: 15 µM [cytotoxic, partial curve, poor fit]

C=C(C)[C@@H]1CC=C(C)C(=O)C1
Potency [5]: inconclusive: 0.155 µM [cytotoxic, full curve, poor fit]
Potency [6]: inconclusive: 12.3 µM [falling, single point]

N=C(N)N1CCc2ccccc2C1
activation [7]: inactive: 2.47% [at 5.95 µM]

CCOC(=O)OCC/C(SC(=O)OCC)=C(\C)N(C=O)Cc1cnc(C)nc1N
Potency [8]: inconclusive: 4.25 µM [rising, partial curve, poor fit]
Potency [9]: inactive

CC(C)(CO)CO
Potency [10]: active: 43.7 µM [activator]

CC12CCC(C(=O)C1=O)C2(C)C (stereo not given)
Potency [11]: inactive

COc1cc(O)cc(O)c1
Potency [10]: inconclusive: 23.9 µM [activator, partial curve]
Potency [3]: inconclusive: 13.3 µM [activator, partial curve]
Potency [9]: inactive

CCCCCCCCCCCCCC(=O)OCC
Potency [12]: inactive

CCn1cc(C(=O)O)c(=O)c2cc3c(cc21)OCO3
Potency [11]: inactive
Potency [6]: inconclusive: 10.4 µM [rising, partial curve]

Nc1ccc(/C=C/c2ccc(N)cc2S(=O)(=O)O)c(S(=O)(=O)O)c1
activation [7]: inactive: -0.496% [at 0.55 µM]

Cc1ncc(CO)c(CN)c1O
activation [7]: inconclusive: -2.71%

COC(=O)c1ccc(C(=O)O)cc1
Potency [13]: inactive
Potency [14]: inactive

C1CCC2(CCCCO2)OC1
Potency [13]: inactive

CCCCCCCCCCCCCCBr
Potency [8]: inactive

C[Si](C)(C)C
Potency [5]: inconclusive: 0.0023 µM [cytotoxic, full curve, poor fit]

NC(N)=O
Potency [9]: active: 23 µM
activity, negative = inhibition [15]: inconclusive: -3.26%
Potency [2]: active: 14.1 µM
Potency [16]: inactive
